Hit rate of the full screen: of about 48,000 compounds, about 1,200 (2.5%) were called active. Inconclusive results (about 2%) are left out.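 How the source made its calls: active means activation of at least 60% and not above a set upper limit (about 1 call in 100 departs from these limits); inconclusive means activation of 40% to 60%, or above that upper limit; inactive means activation under 40%.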 The list shows a part of the results.
The molecules below were run against Probable G-protein coupled receptor 32 (Homo sapiens) (UniProt O75388) (assay: qHTS for Agonists of Human Resolvin D1 Receptor DRV1). Conditions: CHO-K1 GPR32 beta-arrestin PathHunter luminescence, 90 min; at 76.9 µM; active compounds read high; zero percent set by DMSO-only wells.
Outline: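 PathHunter enzyme-fragment complementation, CHO-K1 GPR32 stable line; 2,500 cells/well, overnight attach; cpd 90 min 37 °C 5% CO2; detection reagent 1 h RT; chemiluminescence. DMSO = EC0.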

UniProt O75388, sequence (O75388 whole entry, looked up, the tested form may be a part): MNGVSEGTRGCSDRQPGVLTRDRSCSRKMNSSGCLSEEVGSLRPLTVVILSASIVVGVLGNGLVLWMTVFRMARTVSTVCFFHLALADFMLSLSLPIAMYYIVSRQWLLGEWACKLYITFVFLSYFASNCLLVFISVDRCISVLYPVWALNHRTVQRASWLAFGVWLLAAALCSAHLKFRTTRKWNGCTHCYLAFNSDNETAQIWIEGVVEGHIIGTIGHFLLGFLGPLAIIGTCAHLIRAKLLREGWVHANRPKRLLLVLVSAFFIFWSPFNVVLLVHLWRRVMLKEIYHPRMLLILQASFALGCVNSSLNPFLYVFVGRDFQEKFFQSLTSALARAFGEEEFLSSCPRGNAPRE

How did the activation turn out when COc1ccc(-c2noc(-c3cccnc3NCc3ccco3)n2)cc1 was run?
Its activation is inactive: -9.4%.

How did the activation turn out when CCCN1C(=O)C(O)(CC(=O)c2ccc(CC)cc2)c2ccccc21 (stereo not drawn) was run?
Its activation is inactive: -12.9%.

With CCc1cccc(C)c1NC(=O)CSc1nc(C)cc(C)c1C(=O)Nc1ccccc1 as the molecule, how does the activation read?
The activation was inactive: -23.1%.

Which activation does the source give for Cc1ccc(Oc2c(C(F)(F)F)oc3cc(OCC(=O)NC4CCCCC4)ccc3c2=O)cc1 here?
The activation was inactive: 1.74%.

For COc1cccc(-n2cc(C(=O)NCc3ccccc3OC)c3ccccc3c2=O)c1, which activation is on record?
Its activation is inactive: -12.6%.

COc1ccc(-c2nc(CN3CCC(C(=O)NCCCOC(C)C)CC3)c(C)o2)cc1OC was tested. Which activation did it give?
Its activation is inactive: -15.6%.

How did the activation turn out when Cc1ccccc1Cn1c(=O)n(CCc2ccccc2)c(=O)c2c(C)c(C)sc21 was run?
Its activation is inactive: 5.77%.

How did the activation turn out when COc1cccc(OCCSc2nc3ccccc3n2CC(=O)N2CCCCC2)c1 was run?
Its activation is inactive: 0.478%.

How did the activation turn out when COC(=O)c1cc(S(=O)(=O)NCC2CCN(Cc3cccc(F)c3)CC2)c[nH]1 was run?
The activation was inactive: -22.2%.

With CCc1cc2c(cc3c(=O)n(CC(=O)NCCc4ccc(OC)c(OC)c4)ncn32)s1 as the molecule, how does the activation read?
Its activation is inactive: 1.57%.

COc1ccc(OC)c(C2N=C(N)Nc3nc4ccccc4n32)c1 (stereo not drawn) was tested. Which activation did it give?
Its activation is inactive: 35.2%.

Which activation does the source give for COc1cc(OC)c(C2Nc3ccccc3-c3nnc(SCc4ccccc4)nc3O2)cc1OC (stereo not drawn) here?
Its activation is active: 64.1%.

How did the activation turn out when COC(=O)CSc1nc(-c2ccc(F)cc2)cc(C(F)(F)F)n1 was run?
Its activation is inactive: -5.46%.

For O=C(CCn1ccc2cc(S(=O)(=O)N3CCCC3)ccc21)NCc1cccc(F)c1, which activation is on record?
The activation was inactive: -0.212%.

How did the activation turn out when Cc1cccc(C)c1-n1ncc(C(=O)NCCN2CCOCC2)c1C1CCN(C(=O)OC(C)(C)C)CC1 was run?
The activation was inactive: -6.74%.

How did the activation turn out when COc1ccc(NC(=O)Cn2c(=O)n(Cc3nc(C)no3)c(=O)c3cc4c(cc32)OCO4)cc1OC was run?
The activation was inactive: -2.6%.

Cc1nc(-c2ccc(Cl)cc2)sc1CCNC(=O)c1ccc(C(F)(F)F)cc1 was tested. Which activation did it give?
Its activation is inactive: -3.57%.

For Cc1ccc(C)c(NC(=O)CCn2nc(C)c3c(C)n(-c4ccccc4)nc3c2=O)c1, which activation is on record?
The activation was inactive: 0.704%.

How did the activation turn out when CCC(C(=O)Nc1ccccc1C(=O)OC)n1nc(C)c2c(C)n(-c3ccc(C)cc3)nc2c1=O (stereo not drawn) was run?
The activation was inactive: -23%.

With Cc1cccc(-c2nn3c(=O)cc(CN4CCN(S(=O)(=O)c5ccc(Cl)cc5)CC4)nc3s2)c1 as the molecule, how does the activation read?
The activation was inactive: -7%.

For Cc1ccc(C)c(NC(=O)c2ccc3c(c2)CCN3S(C)(=O)=O)c1, which activation is on record?
The activation was inactive: 3.24%.

For CCC1CCc2nc3sc(C(=O)Nc4ccc(F)c(Cl)c4)c(N)c3cc2C1 (stereo not drawn), which activation is on record?
Its activation is inactive: 15.5%.

For COc1ccccc1C(=O)OCc1cc(=O)n2nc(C3CC3)sc2n1, which activation is on record?
Its activation is inactive: -2.27%.

For COc1ccc(OC)c(NC(=O)CSc2c3c(nc4cc(Cl)ccc24)CCCC3)c1, which activation is on record?
Its activation is inactive: -22.9%.

Which activation does the source give for NC(=O)CSc1nc2cc3c(cc2c(=O)n1CCCCCC(=O)NCc1ccc2c(c1)OCO2)OCO3 here?
The activation was inactive: -11.4%.

How did the activation turn out when CC(=O)c1cccc(NC(=O)CCS(=O)(=O)c2ccc3c(c2)n(C)c(=O)c(=O)n3C)c1 was run?
Its activation is inactive: 0.158%.

With COc1ccc(OC)c(NC(=O)C2CCCN(S(=O)(=O)c3ccc4[nH]c(=O)ccc4c3)C2)c1 (stereo not drawn) as the molecule, how does the activation read?
The activation was inactive: -6.1%.

For O=C(Nc1ccccc1C(F)(F)F)C1(S(=O)(=O)c2ccc(Cl)cc2)CC1, which activation is on record?
Its activation is inactive: 2.9%.

Which activation does the source give for CN1CC(=O)N(CC(=O)Nc2cccc(C#N)c2)c2ccccc2C1=O here?
Its activation is inactive: 20.8%.

Which activation does the source give for Cc1ccc(CCNC(=O)c2cnc3c(C)cccn3c2=O)cc1 here?
Its activation is inactive: -8.62%.

For Cc1c(Cl)cccc1NC(=O)Nc1nnc(N(C)C2CCCCC2)s1, which activation is on record?
Its activation is inactive: 3.93%.

How did the activation turn out when COc1ccc(-c2cn3c(n2)sc2cc(C(=O)NCC(C)c4ccccc4)ccc23)cc1 (stereo not drawn) was run?
The activation was inactive: -0.528%.

How did the activation turn out when CCOC(=O)N1CCN(Cc2nc3cc(NC(=O)c4ccc(F)cc4)ccc3n2C(C)C)CC1 was run?
The activation was inactive: 2.39%.

Which activation does the source give for CCOCCCNC(=O)C(NC(=O)C1CCC(C)CC1)C(C)C (stereo not drawn) here?
The activation was inactive: 4.85%.

With CN(C1CCCCC1)S(=O)(=O)c1ccc2c(c1)c(=O)c(C(=O)N1CCN(c3ccc(F)cc3)CC1)cn2C as the molecule, how does the activation read?
Its activation is inactive: -3.29%.

With Cc1ccc(C(=O)c2cn(Cc3cc(C)ccc3C)c3nc(C)ccc3c2=O)cc1 as the molecule, how does the activation read?
The activation was inactive: 33.9%.

Which activation does the source give for CCCCCCNC(=O)CCc1c(C)nc2nc(-c3cc(OC)cc(OC)c3)nn2c1C here?
Its activation is inactive: -0.534%.

With CC(C)c1cc(C(=O)NCc2ccc(F)cc2)no1 as the molecule, how does the activation read?
Its activation is inactive: -9.04%.

With CCS(=O)(=O)n1nc(-c2ccco2)nc1NCc1ccc(C(C)C)cc1 as the molecule, how does the activation read?
The activation was inactive: 4.61%.

With CCc1ccccc1NC(=O)c1nn(-c2ccc(C)cc2)c(=O)c2c1c1ccccc1n2C as the molecule, how does the activation read?
The activation was inactive: -8.75%.

With CC(=O)Nc1ccc(NC(=O)C(NC(=O)C2CCC(C)CC2)C(C)C)cc1 (stereo not drawn) as the molecule, how does the activation read?
The activation was inactive: -1.82%.

COc1ccc(C)cc1NC(=O)C1CCC(CNS(=O)(=O)c2ccc3c(c2)CCCC(=O)N3)CC1 (stereo not drawn) was tested. Which activation did it give?
The activation was inactive: -4.1%.

Cc1ccc(-n2cnc3cc(C(=O)NC4CCCCCC4)ccc32)c(C)c1 was tested. Which activation did it give?
The activation was inactive: -0.111%.

How did the activation turn out when O=C(Nc1ccc(F)cc1)c1ccc(CN2CC(=O)N3CCCCC3C2=O)cc1 (stereo not drawn) was run?
Its activation is inactive: -14.8%.

Which activation does the source give for CCc1ccc(Cn2nnc3c(=O)[nH]c(C4CCCN(C(=O)c5cccc(Cl)c5)C4)nc32)cc1 (stereo not drawn) here?
The activation was inactive: 16.8%.

How did the activation turn out when CCn1cc2nc(SCC(=O)Nc3cc(OC)ccc3OC)n(Cc3ccc(Cl)cc3)c(=O)c2n1 was run?
The activation was inactive: -17.2%.

How did the activation turn out when Cc1ccc(-n2c(SCC(=O)N3CCc4ccccc43)nc3c([nH]c4ccccc43)c2=O)cc1 was run?
Its activation is inactive: -2.8%.

COc1cc(C2c3c(-c4cc(C)ccc4O)n[nH]c3C(=O)N2Cc2cccnc2)cc(OC)c1OC (stereo not drawn) was tested. Which activation did it give?
Its activation is inactive: -3.23%.

Which activation does the source give for CCOc1ccccc1NC(=O)c1ccc2c(c1)CCN2S(C)(=O)=O here?
Its activation is inactive: -15.7%.

For CCS(=O)(=O)N1CCc2cc(C(=O)Nc3cc([N+](=O)[O-])ccc3C)ccc21, which activation is on record?
Its activation is inactive: 22.9%.

With O=C(Nc1ccc(OC(F)(F)F)cc1)c1cc2c(=O)n3ccccc3nc2s1 as the molecule, how does the activation read?
Its activation is inactive: 21.4%.

Which activation does the source give for CC(C)(C)CC(C)(C)c1ccc(O)c(Cc2ccc(Cl)cc2Cl)c1 here?
Its activation is inactive: 40.3%.

How did the activation turn out when COc1ccccc1CCNC(=O)Cn1ccc2cc(S(=O)(=O)N3CCCCC3)ccc21 was run?
Its activation is inactive: -15%.
